Among the data in publication PMC12136788 are binding signal values, retold here.

B1: chr5:144470944:144470945:+_ENSMUSG00000018001_ENSMUST00000116456|mus_hu|FALSE|FALSE (ssRNA)
RNA: GGGAGUUCUACAGUCCGACGAUCAUCAUUGAAUAACAGACACUCCAGAAAUCAACAGAUGUACAUUAUUUACAUAUUACUAUAUUUACCGCAAAUAGAAAUAUUUUCUAAGAAAAAAAGUCAAUUUGUGGUUUCUGGUCUACCCAACAGAGGAUUGAGCAUCA
B2: chr1:3697355:3697356:-_ENSG00000130764_ENST00000378251|hu_hu|motif|central (ssRNA)
RNA: GGGAGUUCUACAGUCCGACGAUCAUCAUGAGGUCAAGAGAUCAAGACCAUCCUGGUCAAAAUGGUGAAACCCCGUCUCGGCGGAAAAUACAAAAAUUAGCUGAGCUUAGUGGCACACACCUGUAGUCCCAGCUACUUGGGAGGCAACAGAGGAUUGAGCAUCA
B3: chr6:40197388:40197389:+_ENSMUSG00000057716_ENSMUST00000061740|mus_mus|mus_mus_mus_hu_False|98_108 (ssRNA)
RNA: GGGAGUUCUACAGUCCGACGAUCGAGUUGUCAGUUUGGAUGGCACCCACCUCUGUUUGGGUGCUAGCCACUAAGACUGUUAUUUUGGGAUUCAUGGCCUUGAAUAUCAAGAGGGAAAGGAAGAGGAUGGAAAGAGUCAAGAGUCAACAGAGGAUUGAGCAUCA
B4: chrX:102930994:102930995:-_ENSG00000123562_ENST00000441076|hu_mus|motif|central (ssRNA)
RNA: GGGAGUUCUACAGUCCGACGAUCAUAAGCCCUGUUUUACACUGACAGUUUUAAAGAACAUCAAUUAUACCAUGAAAGGACGGAACAGAAGUGUUUACAGAUACCAGACAAUAGUGAGCGGUCAGUAGACCUUCACAGGGCUUUCAACAGAGGAUUGAGCAUCA
B5: chr10:103870385:103870386:-_ENSG00000198728_ENST00000425280|hu_hu|FALSE|FALSE (ssRNA)
RNA: GGGAGUUCUACAGUCCGACGAUCGUCACAGUCGAGGGACACAAAGUUGCUGUGGAAUGCCUCCUUGGGGUGCUUAAGAACAUAGUACAGCUCCGUAGCACCCCCCUCAAAGAUGCUGCGGAAGUAGCGUGGGAUCAGGGUCCGCAACAGAGGAUUGAGCAUCA
B6: 117002743_117002863_279_CDS_ENSMUSG00000020823_ENSMUST00000090433|mouse|control|control (ssRNA)
RNA: GGGAGUUCUACAGUCCGACGAUCCGCAUCUAUAUCCAGCUUGCAGCGCCUCUCGAUGACAUGAAGAGCCCCAUCCUCACUCUUGAACUCGCUCACAGUGUCACUGUCCACGAACAUUGGAAUCAGAGGACAUGUAGGAAACCUCAACAGAGGAUUGAGCAUCA
B7: chrX:71549762:71549763:+_ENSMUSG00000019087_ENSMUST00000019231|mus_mus|mus_mus_mus_hu_False|28_58 (ssRNA)
RNA: GGGAGUUCUACAGUCCGACGAUCAAACCCGUGUACUUCUUAUUGUUAGCACAACAUCACCAGAAAACGAUAACGACAGCUAAGCUGGACAGACAGUUAAGUAGUACUUCCACACCUCCAAACUCAGGGAGCCCUAUAACCUUACAACAGAGGAUUGAGCAUCA
B8: chr8:95500983:95500984:-_ENSG00000164944_ENST00000437199|hu_hu|hu_hu_hu_mus_True|1_38 (ssRNA)
RNA: GGGAGUUCUACAGUCCGACGAUCAGAACACAUCUAUCGAGUAAAGGACCGUACAUGACGGCCUCUACCACUGCCUCCACUAACAAACUUUCCUCUCUGAGCCUCCAUGCCGCUAUUUGUACUAGCCCAGGACGGUCCCAAGUCCAACAGAGGAUUGAGCAUCA
B9: 88509813_88509933_4497_3pUTR_ENSMUSG00000034111_ENSMUST00000037418|mouse|control|control (ssRNA)
RNA: GGGAGUUCUACAGUCCGACGAUCAAGACAGUUCUGAAGCAGCACAAACUUAAUUUGCACCUUCUCUCUGUCCACUAAAAACGUCUUCACAUAAUUACUAGGGUCACUCAAUCCCACACCUUAGAACCAUGGACUCUGACAUUACAACAGAGGAUUGAGCAUCA
B10: chr2:179515052:179515053:+_ENSMUSG00000000305_ENSMUST00000000314|mus_hu|mus_mus_mus_hu_False|78_108 (ssRNA)
RNA: GGGAGUUCUACAGUCCGACGAUCGCUUUCCCGCGCAGUCACCGUGAACGCCACCUGCUCUGAGGGGACCUGCAGCUCCCGGGUGGCGAAGACUGUCCCAUCUGCCCCAACUUUGAAGUCCAUGCUGUUGGUCUCAUAUUGUGUCAACAGAGGAUUGAGCAUCA
B11: chr21:30248746:30248747:-_ENSG00000156239_ENST00000303775|hu_hu|motif|central (ssRNA)
RNA: GGGAGUUCUACAGUCCGACGAUCUCAAAAUAUGCUAAAUGCAUUCAGUUUCCAGUAGUUCUGGGCACACACUGUAUGCGGAGACUUGGUGAACUUGAGGACUGAAAGAGUUUCUUGGCCUGCUUGUCUGGAAAGUGCAGUGGUCAACAGAGGAUUGAGCAUCA
B12: 32341751_32342618_1515_3pUTR_ENSMUSG00000027665_ENSMUST00000108243|mouse|control|control (ssRNA)
RNA: GGGAGUUCUACAGUCCGACGAUCUCAGCAGAUCUUCUAACCCAUGCGGUACAGGCCAGAGAUUCAAAGCCAUUUUCCCGGACACUAGGGUGUCUGUAUAAUCAAACAAGUUUAUGUUUCCCCAGGCCAACGGACAGUGCUCCUCAACAGAGGAUUGAGCAUCA
B13: chr18:74380996:74380997:+_ENSMUSG00000024560_ENSMUST00000025444|mus_mus|FALSE|FALSE (ssRNA)
RNA: GGGAGUUCUACAGUCCGACGAUCGCAGAGACCCUUUGAUAAGGGCAAACGGAAGCCAAAACGUGGAUGGUGAGGAUCAAACUAAGGGCAGCAGAAGAAACAGAUGAAUGGAGGAACGGACAGCUGGCAAUGCAGGGCCUCUCCCAACAGAGGAUUGAGCAUCA
B14: chr11:77336104:77336105:-_ENSG00000074201_ENST00000525064|hu_mus|hu_hu_hu_mus_False|18_48 (ssRNA)
RNA: GGGAGUUCUACAGUCCGACGAUCCUCACACAUUGCUGUGAACAUCGCCUCCAAUGCUGACUUAUCACUGGGCACAAAUCGAAAUUCAGUAAUAGGUUCAACAUCAUCAUUGUCUUCUUCCUCUUCUUCAGAGAGAGGUUCUUUCAACAGAGGAUUGAGCAUCA

Some of the results follow.

The assay deals with T1, UNK ZnF1-3 (human, UniProt Q9C0B0 31-174).
T1 sequence: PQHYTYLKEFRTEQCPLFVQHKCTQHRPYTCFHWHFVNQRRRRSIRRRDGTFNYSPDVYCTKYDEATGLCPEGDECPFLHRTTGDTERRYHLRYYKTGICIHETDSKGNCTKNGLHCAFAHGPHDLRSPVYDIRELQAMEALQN
Kind of assay: nsRBNS (natural sequence RNA bind-n-seq); RBNS binding buffer (assumed for nsRBNS): 25 mM Tris pH 7.5, 150 mM KCl, 3 mM MgCl2, 0.01% Triton X-100, 500 ug/ml BSA, 20 U/ml SUPERase-In, 4 C; UNK is unkempt and MSI1 is Musashi-1; names of the RNAs are library labels; protein concentration not given here; high values mean tight binding.
B1 yielded a binding signal of 1.31 enrichment R.
To B2 belongs 1.28 enrichment R.
As for B3, the binding signal stood at 1.34 enrichment R.
Turning to B4, the binding signal stood at 1.24 enrichment R.
Molecule B5 showed a binding signal of 1.09 enrichment R.
Take B6: the binding signal came out at 1.65 enrichment R.
B7 registered a binding signal of 1.18 enrichment R.
B8 showed a binding signal of 1.08 enrichment R.
For the molecule B9, the binding signal turned out to be 0.996 enrichment R.
As to B10, the binding signal is 0.712 enrichment R.
On to B11, for which the binding signal amounted to 1.08 enrichment R.
For the molecule B12, the binding signal amounted to 0.759 enrichment R.
To B13 belongs 1.97 enrichment R; to B14, 0.645 enrichment R.
